Measurements reported in article PMC9911399, “Two distinct binding modes provide the RNA-binding protein RbFox with extraordinary sequence specificity”.
Numbering of substitutions follows the chain as printed; changes in the protein carry UniProt numbers. This is one part of the list.

T1: RBFOX1 RRM (Homo sapiens, UniProt Q9NWB1 109-208)
T1 sequence: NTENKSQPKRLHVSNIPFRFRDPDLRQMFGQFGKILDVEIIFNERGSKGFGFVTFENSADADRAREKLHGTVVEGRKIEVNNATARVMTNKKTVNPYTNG

B1: AGUCCGC (DNA:RNA)
RNA: GGGAGACCGGAAUUCAGAUUGUCCAGUCCGCUUAAAUCCCGUCGUAGCCACCA
DNA 1: CAATCTGAATTCCGGTCTCCC
DNA 2: TGGTGGCTACGACGGGATT
B2: AGUUCCA (DNA:RNA)
RNA: B1 RNA with C28U, G30C, C31A
DNA 1: CAATCTGAATTCCGGTCTCCC
DNA 2: TGGTGGCTACGACGGGATT
B3: ACCGCUG (DNA:RNA)
RNA: B1 RNA with G26C, U27C, C28G, G30U, C31G
DNA 1: CAATCTGAATTCCGGTCTCCC
DNA 2: TGGTGGCTACGACGGGATT
B4: GACGAGU (DNA:RNA)
RNA: B1 RNA with A25G, G26A, U27C, C28G, C29A, C31U
DNA 1: CAATCTGAATTCCGGTCTCCC
DNA 2: TGGTGGCTACGACGGGATT
B5: AAUUUUG (DNA:RNA)
RNA: B1 RNA with G26A, C28U, C29U, G30U, C31G
DNA 1: CAATCTGAATTCCGGTCTCCC
DNA 2: TGGTGGCTACGACGGGATT
B6: UUCACUU (DNA:RNA)
RNA: B1 RNA with A25U, G26U, U27C, C28A, G30U, C31U
DNA 1: CAATCTGAATTCCGGTCTCCC
DNA 2: TGGTGGCTACGACGGGATT
B7: AUACGUU (DNA:RNA)
RNA: B1 RNA with G26U, U27A, C29G, G30U, C31U
DNA 1: CAATCTGAATTCCGGTCTCCC
DNA 2: TGGTGGCTACGACGGGATT
B8: GACCUGC (DNA:RNA)
RNA: B1 RNA with A25G, G26A, U27C, C29U
DNA 1: CAATCTGAATTCCGGTCTCCC
DNA 2: TGGTGGCTACGACGGGATT
B9: AUCUUCG (DNA:RNA)
RNA: B1 RNA with G26U, U27C, C28U, C29U, G30C, C31G
DNA 1: CAATCTGAATTCCGGTCTCCC
DNA 2: TGGTGGCTACGACGGGATT
B10: CGCAUUU (DNA:RNA)
RNA: B1 RNA with A25C, U27C, C28A, C29U, G30U, C31U
DNA 1: CAATCTGAATTCCGGTCTCCC
DNA 2: TGGTGGCTACGACGGGATT
B11: CAAAUAU (DNA:RNA)
RNA: GGGAGACCGGAAUUCAGAUUGUCCCAAAUAUUUAAAUCCCGUCGUAGCCACCA
DNA 1: CAATCTGAATTCCGGTCTCCC
DNA 2: TGGTGGCTACGACGGGATT
B12: GGGAGAC (DNA:RNA)
RNA: B1 RNA with A25G, U27G, C28A, C29G, G30A
DNA 1: CAATCTGAATTCCGGTCTCCC
DNA 2: TGGTGGCTACGACGGGATT
B13: CCUAAGG (DNA:RNA)
RNA: B1 RNA with A25C, G26C, C28A, C29A, C31G
DNA 1: CAATCTGAATTCCGGTCTCCC
DNA 2: TGGTGGCTACGACGGGATT
B14: ACUGACG (DNA:RNA)
RNA: B1 RNA with G26C, C28G, C29A, G30C, C31G
DNA 1: CAATCTGAATTCCGGTCTCCC
DNA 2: TGGTGGCTACGACGGGATT
B15: AGCAGGA (DNA:RNA)
RNA: B1 RNA with U27C, C28A, C29G, C31A
DNA 1: CAATCTGAATTCCGGTCTCCC
DNA 2: TGGTGGCTACGACGGGATT
B16: CCGUUUU (DNA:RNA)
RNA: B11 RNA with A26C, A27G, A28U, A30U
DNA 1: CAATCTGAATTCCGGTCTCCC
DNA 2: TGGTGGCTACGACGGGATT
B17: UAGGAUA (DNA:RNA)
RNA: B11 RNA with C25U, A27G, A28G, U29A, A30U, U31A
DNA 1: CAATCTGAATTCCGGTCTCCC
DNA 2: TGGTGGCTACGACGGGATT
B18: CUCCGAU (DNA:RNA)
RNA: B11 RNA with A26U, A27C, A28C, U29G
DNA 1: CAATCTGAATTCCGGTCTCCC
DNA 2: TGGTGGCTACGACGGGATT
B19: UACACGG (DNA:RNA)
RNA: B1 RNA with A25U, G26A, U27C, C28A, C31G
DNA 1: CAATCTGAATTCCGGTCTCCC
DNA 2: TGGTGGCTACGACGGGATT
B20: CGUGCUG (DNA:RNA)
RNA: B1 RNA with A25C, C28G, G30U, C31G
DNA 1: CAATCTGAATTCCGGTCTCCC
DNA 2: TGGTGGCTACGACGGGATT
B21: UCGCUUA (DNA:RNA)
RNA: B1 RNA with A25U, G26C, U27G, C29U, G30U, C31A
DNA 1: CAATCTGAATTCCGGTCTCCC
DNA 2: TGGTGGCTACGACGGGATT
B22: UAGGAUU (DNA:RNA)
RNA: B11 RNA with C25U, A27G, A28G, U29A, A30U
DNA 1: CAATCTGAATTCCGGTCTCCC
DNA 2: TGGTGGCTACGACGGGATT
B23: CCCAAUU (DNA:RNA)
RNA: B11 RNA with A26C, A27C, U29A, A30U
DNA 1: CAATCTGAATTCCGGTCTCCC
DNA 2: TGGTGGCTACGACGGGATT
B24: GCCGGAA (DNA:RNA)
RNA: B11 RNA with C25G, A26C, A27C, A28G, U29G, U31A
DNA 1: CAATCTGAATTCCGGTCTCCC
DNA 2: TGGTGGCTACGACGGGATT
B25: UUACCCC (DNA:RNA)
RNA: B1 RNA with A25U, G26U, U27A, G30C
DNA 1: CAATCTGAATTCCGGTCTCCC
DNA 2: TGGTGGCTACGACGGGATT
B26: GAUACUA (DNA:RNA)
RNA: B1 RNA with A25G, G26A, C28A, G30U, C31A
DNA 1: CAATCTGAATTCCGGTCTCCC
DNA 2: TGGTGGCTACGACGGGATT
B27: AGCAGUC (DNA:RNA)
RNA: B1 RNA with U27C, C28A, C29G, G30U
DNA 1: CAATCTGAATTCCGGTCTCCC
DNA 2: TGGTGGCTACGACGGGATT
B28: GUGACAG (DNA:RNA)
RNA: B11 RNA with C25G, A26U, A27G, U29C, U31G
DNA 1: CAATCTGAATTCCGGTCTCCC
DNA 2: TGGTGGCTACGACGGGATT
B29: CACACCA (DNA:RNA)
RNA: B11 RNA with A27C, U29C, A30C, U31A
DNA 1: CAATCTGAATTCCGGTCTCCC
DNA 2: TGGTGGCTACGACGGGATT
B30: UCUCAAC (DNA:RNA)
RNA: B1 RNA with A25U, G26C, C29A, G30A
DNA 1: CAATCTGAATTCCGGTCTCCC
DNA 2: TGGTGGCTACGACGGGATT
B31: AGCGGAU (DNA:RNA)
RNA: B1 RNA with U27C, C28G, C29G, G30A, C31U
DNA 1: CAATCTGAATTCCGGTCTCCC
DNA 2: TGGTGGCTACGACGGGATT

target: T1, RBFOX1 RRM; assay: EMSA; HiTS-Eq, 1 nM pool, 10 min; buffer printed only for the single-RNA assays: 10 mM Tris pH 7.5, 150 mM NaCl, 3.4 mM EDTA, 0.001% NP-40, 30 C; details: tags: His6 N-terminal (pET28a); label: 5' 32P
Outline: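 Purified wild-type or mutant RbFox RRM at increasing concentrations was equilibrated with 1 nM of 5′-radiolabelled RNA carrying 7 randomized nucleotides for 10 min in 50 µL. Unbound RNA was separated by 8% native PAGE and sequenced. Relative association constants came from read-count changes of each RNA species compared with the control reaction, normalised to the cognate motif.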

Binder | binding signal
B1 | 0.0128 KA relative to UGCAUGU
B2 | 0.00262 KA relative to UGCAUGU
B3 | 0.00961 KA relative to UGCAUGU
B4 | 0.0215 KA relative to UGCAUGU
B5 | 0.0117 KA relative to UGCAUGU
B6 | 0.00242 KA relative to UGCAUGU
B7 | 0.00222 KA relative to UGCAUGU
B8 | 0.0204 KA relative to UGCAUGU
B9 | 0.00795 KA relative to UGCAUGU
B10 | 0.0106 KA relative to UGCAUGU
B11 | 0.00103 KA relative to UGCAUGU
B12 | 0.0226 KA relative to UGCAUGU
B13 | 0.00828 KA relative to UGCAUGU
B14 | 0.0104 KA relative to UGCAUGU
B15 | 0.00761 KA relative to UGCAUGU
B16 | 0.0107 KA relative to UGCAUGU

Binder | binding signal
B17 | 0.00477 KA relative to UGCAUGU
B18 | 0.00683 KA relative to UGCAUGU
B19 | 0.00971 KA relative to UGCAUGU
B20 | 0.0178 KA relative to UGCAUGU
B21 | 0.00671 KA relative to UGCAUGU
B22 | 0.00732 KA relative to UGCAUGU
B23 | 0.0029 KA relative to UGCAUGU
B24 | 0.011 KA relative to UGCAUGU
B25 | 0.0005 KA relative to UGCAUGU
B26 | 0.00653 KA relative to UGCAUGU
B27 | 0.0114 KA relative to UGCAUGU
B28 | 0.0141 KA relative to UGCAUGU
B29 | 0.000943 KA relative to UGCAUGU
B30 | 0.00346 KA relative to UGCAUGU
B31 | 0.00761 KA relative to UGCAUGU
